The text below walks through data of PMC4336329 (PLoS ONE, 2015).

The campaign covered roughly 310,000 compounds. About 2,200 (0.71%) showed an effect of 50% or more. The effect is printed as a negative number. This is one part of the list.

The target of this experiment is human ether-à-go-go-related gene (hERG) potassium channel (human, UniProt Q12809). The experiment can be described thus: primary screen, population patch clamp on CHO cells stably expressing hERG.
Chain of human ether-à-go-go-related gene (hERG) potassium channel (Q12809 whole entry, looked up): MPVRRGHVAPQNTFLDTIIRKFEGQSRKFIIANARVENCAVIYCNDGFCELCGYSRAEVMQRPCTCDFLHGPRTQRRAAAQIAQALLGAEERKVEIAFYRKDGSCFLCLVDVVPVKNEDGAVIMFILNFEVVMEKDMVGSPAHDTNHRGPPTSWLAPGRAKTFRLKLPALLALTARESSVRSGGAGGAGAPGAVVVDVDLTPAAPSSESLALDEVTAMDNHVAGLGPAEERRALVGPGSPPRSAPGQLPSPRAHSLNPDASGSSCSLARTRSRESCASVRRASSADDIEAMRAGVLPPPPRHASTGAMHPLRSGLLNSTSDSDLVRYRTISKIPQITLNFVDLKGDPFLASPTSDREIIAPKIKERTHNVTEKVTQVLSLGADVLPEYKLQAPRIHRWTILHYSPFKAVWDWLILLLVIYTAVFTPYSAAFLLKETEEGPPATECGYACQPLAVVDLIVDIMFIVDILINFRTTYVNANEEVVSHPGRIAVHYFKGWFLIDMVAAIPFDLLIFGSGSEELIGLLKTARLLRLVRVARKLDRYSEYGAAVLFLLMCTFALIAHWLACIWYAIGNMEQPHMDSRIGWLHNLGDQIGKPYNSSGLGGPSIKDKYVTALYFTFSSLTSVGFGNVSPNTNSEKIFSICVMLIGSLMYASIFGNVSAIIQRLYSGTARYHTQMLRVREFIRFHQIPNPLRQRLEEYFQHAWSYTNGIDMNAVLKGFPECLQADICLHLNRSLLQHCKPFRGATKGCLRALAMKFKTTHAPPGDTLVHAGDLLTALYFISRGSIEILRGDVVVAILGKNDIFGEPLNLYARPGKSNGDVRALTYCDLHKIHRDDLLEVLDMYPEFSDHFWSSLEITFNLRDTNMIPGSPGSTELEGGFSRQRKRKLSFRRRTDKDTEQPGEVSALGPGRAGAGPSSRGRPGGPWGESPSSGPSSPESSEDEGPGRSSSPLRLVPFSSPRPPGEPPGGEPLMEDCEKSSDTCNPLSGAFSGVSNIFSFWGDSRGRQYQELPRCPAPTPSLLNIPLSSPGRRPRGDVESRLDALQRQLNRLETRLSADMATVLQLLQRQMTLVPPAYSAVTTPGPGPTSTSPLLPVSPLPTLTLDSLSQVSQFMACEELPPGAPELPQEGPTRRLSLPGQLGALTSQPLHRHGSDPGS
In the case of `O=C(NCc1ccncc1)c1ccc(Br)cc1`, the “hERG current change (%, negative = inhibition) at 1uM” value was 1.23%.

For the compound `Cc1nc2c(-c3ccc(F)cc3)c(C)nn2c(C)c1CCC(=O)N1CCC2(CC1)OCCO2`, the “hERG current change (%, negative = inhibition) at 1uM” value was -33.2%.

Regarding `CC(C)(C)OC(=O)NCCCCCNC(=O)c1[nH]cnc1C(=O)NC1CCN(C(=O)OC(C)(C)C)CC1`, the “hERG current change (%, negative = inhibition) at 1uM” value is -13.1%.

In the case of `N#CCC(=O)Nc1ccc(C(=O)OCC(=O)N=c2sccn2Cc2ccccc2Cl)cc1`, the “hERG current change (%, negative = inhibition) at 1uM” value is 8.25%.

For `O=C(CSc1nnc(-c2ccccc2)o1)N1CCN(c2ccccc2)CC1`, the “hERG current change (%, negative = inhibition) at 1uM” value is 21.4%.

In the case of `COc1ccc(CNC(=O)CCCn2nc(C)c3c(C)n(-c4ccc(C)cc4)nc3c2=O)cc1OC`, the “hERG current change (%, negative = inhibition) at 1uM” value was 10.9%.

Consider `CCOC(=O)C1CCN(C(=O)CCS(=O)(=O)c2ccc3c(c2)CCN3C(C)=O)CC1`, for which the “hERG current change (%, negative = inhibition) at 1uM” value came out at 17.6%.

On to `CCOc1ccc(-n2ccnc(SCC(=O)NCc3cccc(OC)c3)c2=O)cc1`, for which the “hERG current change (%, negative = inhibition) at 1uM” value came to 6.35%.

Consider `O=C(c1cc2c(s1)CCCC2)N1CCN(c2ccccc2)CC1`, for which the “hERG current change (%, negative = inhibition) at 1uM” value came to 10.9%.

For `COc1ccc(NC2CC(=O)N(C(C)C)C2=O)cc1` (stereo not shown), the “hERG current change (%, negative = inhibition) at 1uM” value was 14.8%.

As for `CC1Cc2cc(S(=O)(=O)N3CCC(C(=O)NCc4ccco4)CC3)ccc2N1C(=O)C1CCC1` (stereo not shown), the “hERG current change (%, negative = inhibition) at 1uM” value is 22.5%.

For the compound `CCN(CC)CC#CCC(O)(c1ccccc1)C1CCCCC1.Cl` (stereo not shown), the “hERG current change (%, negative = inhibition) at 1uM” value is given as -3.04%.

In the case of `Cn1cnnc1SCc1ccc(C(=O)NN)cc1`, the “hERG current change (%, negative = inhibition) at 1uM” value is given as -3.34%.

As to `COc1ccc(C(=O)CSc2nnc(-c3ccco3)n2C)cc1`, the “hERG current change (%, negative = inhibition) at 1uM” value worked out at 7.43%.

For `COc1cc(C(=O)Nc2cccc(-c3nc4cc(C)ccc4o3)c2)cc(OC)c1OC`, the “hERG current change (%, negative = inhibition) at 1uM” value was determined as 10.6%.

In the case of `COc1ccc(CNc2nc3ccccc3n2C)c(OC)c1`, the “hERG current change (%, negative = inhibition) at 1uM” value is -3.26%.

As to `CCc1c(C)c2ccc(OCC(=O)N(C)C)c(C)c2oc1=O`, the “hERG current change (%, negative = inhibition) at 1uM” value was 5.4%.

`O=C1CN(CC(=O)Nc2cccc(Cl)c2Cl)c2ccccc2N1`: the “hERG current change (%, negative = inhibition) at 1uM” value is reported as 7.89%.

Regarding `Cc1c2c(nc3ccccc13)CC(C)(C)CC2=O.Cl`, the “hERG current change (%, negative = inhibition) at 1uM” value is recorded as 6.54%.

With `COc1ccc(C)cc1NC(=O)CCNS(=O)(=O)c1cccc(C(F)(F)F)c1`, the “hERG current change (%, negative = inhibition) at 1uM” value turned out to be 7.5%.

Turning to `NC(=S)Nc1cc2ccccc2c2ccccc12`, the “hERG current change (%, negative = inhibition) at 1uM” value stood at 4.88%.

For the compound `COc1ccc(S(=O)(=O)N2CCCC2C(=O)n2nc(C)cc2C)cc1` (stereo not shown), the “hERG current change (%, negative = inhibition) at 1uM” value is 3.7%.

For the compound `COc1ccc(CN(CC(=O)NC(C)C)C(=O)CCC(=O)Nc2nccs2)cc1`, the “hERG current change (%, negative = inhibition) at 1uM” value came out at 11.9%.

In the case of `CN(NC1OC(=O)c2ccccc21)c1ccc(C(F)(F)F)cc1[N+](=O)[O-]` (stereo not shown), the “hERG current change (%, negative = inhibition) at 1uM” value is on record as 19%.

As for `CC(=O)Nc1ccc(NC(=O)c2cc(-c3cc(C)cc(C)c3O)n[nH]2)cc1`, the “hERG current change (%, negative = inhibition) at 1uM” value worked out at 14.6%.

Turning to `COC(=O)c1c(NC(=O)CSc2nc3nc(C)cc(C)n3n2)sc(C)c1C`, the “hERG current change (%, negative = inhibition) at 1uM” value is given as 11.2%.

As for `CCOC(=O)c1ccccc1N=Cc1c(O)c2ccccc2oc1=O`, the “hERG current change (%, negative = inhibition) at 1uM” value worked out at 19.3%.

`N#Cc1ccc(-c2ccc(OCC(O)CN3CCCCC3)cc2)cc1` (stereo not shown): the “hERG current change (%, negative = inhibition) at 1uM” value is -52.1%.

As for `CCn1c(O)c(/C=C2\C=Nc3ccccc32)sc1=O`, the “hERG current change (%, negative = inhibition) at 1uM” value is 11.4%.

Take `CC1CN(C(=O)c2cc3cc([N+](=O)[O-])ccc3oc2=O)CC(C)O1` (stereo not shown): the “hERG current change (%, negative = inhibition) at 1uM” value is reported as 3.81%.

`Cc1cc(=O)[nH]c(SCc2nc3ccccc3n2Cc2ccccc2)n1`: the “hERG current change (%, negative = inhibition) at 1uM” value is listed as 4.81%.

On to `C=CCNC(=O)c1onc(CCl)c1C(=O)OC`, for which the “hERG current change (%, negative = inhibition) at 1uM” value is listed as 10.7%.

In the case of `CN1/C(=C\C=C\C2=[N+](C)c3ccc4ccccc4c3C2(C)C)C(C)(C)c2ccccc21.[O-][Cl+3]([O-])([O-])[O-]`, the “hERG current change (%, negative = inhibition) at 1uM” value is given as -43.6%.

As for `COc1ccc(OC)c(-c2cc(C(=O)Nc3c(C)nn(Cc4ccccc4Cl)c3C)no2)c1`, the “hERG current change (%, negative = inhibition) at 1uM” value is on record as 8.79%.

For the compound `CC1(C)CC(=O)C2=C(C1)Nc1ncnn1C2c1ccccn1` (stereo not shown), the “hERG current change (%, negative = inhibition) at 1uM” value amounted to 13.2%.

On to `CCC(c1nnc(SCC(=O)NNC(=O)c2ccccc2)n1Cc1ccccc1)N(C)C` (stereo not shown), for which the “hERG current change (%, negative = inhibition) at 1uM” value was determined as 16.7%.

On to `CCC1CCCCN1CCN1C(=O)C2C(C(=O)Nc3cccc(OC)c3)C3C=CC2(O3)C1C(=O)NC1CCCCC1` (stereo not shown), for which the “hERG current change (%, negative = inhibition) at 1uM” value was 8.14%.

As for `Cc1ccc(NC(=O)CSCC(=O)Nc2cc(Cl)ccc2N2CCOCC2)cc1`, the “hERG current change (%, negative = inhibition) at 1uM” value stood at 9.6%.

On to `CS(=O)(=O)N(CC(=O)N1CCc2ccccc2C1)c1ccc(Cl)cc1F`, for which the “hERG current change (%, negative = inhibition) at 1uM” value was 5.07%.

Consider `O=C1c2ccccc2CC1Sc1nnc(-c2ccncc2)o1` (stereo not shown), for which the “hERG current change (%, negative = inhibition) at 1uM” value is -1.21%.

With `O=C1CCC(C(=O)Nc2cccc(C(F)(F)F)c2)N1` (stereo not shown), the “hERG current change (%, negative = inhibition) at 1uM” value stood at 11.1%.

`O=[N+]([O-])c1cccc(-c2ccc(/C=N/NC(=S)NCc3ccco3)o2)c1`: the “hERG current change (%, negative = inhibition) at 1uM” value is 14.7%.

`O=[N+]([O-])c1ccc(/C=N/NC(=S)Nc2ccccc2)o1`: the “hERG current change (%, negative = inhibition) at 1uM” value is 13.6%.
